The results in this text go back to PubChem BioAssay AID180 (DTP/NCI, 2004).

Several values for one entry are separate records, joined by “and”; a condition that tells them apart may be missing. Equal values may be shown once. This continues a long series; more values of the same kind are listed elsewhere.

The experiment has as its system BDF1 mice, Adenocarcinoma 755 s.c., tumor weight T/C. Briefly: NCI In Vivo Anticancer Drug Screen. Data for tumor model Adenocarcinoma 755 (subcutaneous) in B6D2F1 (BDF1) mice. The note with it: endpoint: mean tumor weight, higher = larger tumour. As to the method:
The antitumor activity of compounds was measured in mice bearing transplantable tumors. Survival or tumor size were measured and the results are expressed as the measurement made in the treated group (T) divided by the measurement made in the vehicle treated control group (C). The tumor model used in this assay is Adenocarcinoma 755 (subcutaneous) in B6D2F1 (BDF1) mice

Turning to `S=c1nc[nH]c2nc[nH]c12`, the T/C is, setting by setting: (dose: 0.01 mg/kg/injection, schedule: Q01DX011 (ip), vehicle: carboxymethylcellulose (CMC)) 51 % of control; (dose: 0.05 mg/kg/injection, schedule: Q01DX011 (ip), vehicle: carboxymethylcellulose (CMC)) 77 % of control; (dose: 0.13 mg/kg/injection, schedule: Q01DX011 (ip), vehicle: carboxymethylcellulose (CMC)) 61 % of control; (dose: 0.2 mg/kg/injection, schedule: Q01DX007 (ip), vehicle: carboxymethylcellulose (CMC)) 63 % of control; (dose: 0.2 mg/kg/injection, schedule: Q01DX011 (ip), vehicle: carboxymethylcellulose (CMC)) 71 % of control and 88 % of control; (dose: 0.25 mg/kg/injection, schedule: Q01DX007 (ip), vehicle: carboxymethylcellulose (CMC)) 73 % of control. For the same molecule, the T/C is, setting by setting: (dose: 0.25 mg/kg/injection, schedule: Q01DX011 (ip), vehicle: carboxymethylcellulose (CMC)) 77 % of control; (dose: 0.25 mg/kg/injection, schedule: Q01DX011 (ip), vehicle: saline) 66 % of control; (dose: 0.3 mg/kg/injection, schedule: Q01DX011 (ip), vehicle: carboxymethylcellulose (CMC)) 80 % of control; (dose: 0.4 mg/kg/injection, schedule: Q01DX011 (ip), vehicle: alkali diluted with saline) 67 % of control; (dose: 0.4 mg/kg/injection, schedule: Q01DX011 (ip), vehicle: saline) 77 % of control; (dose: 0.43 mg/kg/injection, schedule: Q01DX011 (ip), vehicle: saline) 60 % of control. In addition, the T/C is, setting by setting: (dose: 0.5 mg/kg/injection, schedule: Q01DX007 (ip), vehicle: carboxymethylcellulose (CMC)) 57 % of control; (dose: 0.54 mg/kg/injection, schedule: Q01DX011 (ip), vehicle: carboxymethylcellulose (CMC)) 43 % of control; (dose: 0.87 mg/kg/injection, schedule: Q01DX011 (oral), vehicle: saline) 35 % of control; (dose: 0.9 mg/kg/injection, schedule: Q01DX011 (ip), vehicle: carboxymethylcellulose (CMC)) 53 % of control; (dose: 2.0 mg/kg/injection, schedule: Q01DX011 (ip), vehicle: carboxymethylcellulose (CMC)) 34 % of control and 52 % of control and 57 % of control; (dose: 276.0 micrograms/kg/injection, schedule: Q01DX011 (ip), vehicle: carboxymethylcellulose (CMC)) 40 % of control. For the same molecule, the T/C reads like this: (dose: 345.0 micrograms/kg/injection, schedule: Q01DX011 (ip), vehicle: carboxymethylcellulose (CMC)) 58 % of control; (dose: 460.0 micrograms/kg/injection, schedule: Q01DX011 (ip), vehicle: carboxymethylcellulose (CMC)) 45 % of control; (dose: 690.0 micrograms/kg/injection, schedule: Q01DX011 (ip), vehicle: carboxymethylcellulose (CMC)) 33 % of control.
